Results: PubChem BioAssay (NCATS)
Some of the results follow. The main result of the screen is listed elsewhere. These columns were measured beside it and carry no call. The list favours compounds with an active or inconclusive main result. Words in brackets tell the shape of the fitted curve; partial curves, single points and poor fits give uncertain potencies.

Experiment: qHTS Assay for Lipid Storage Modulators (AID 1519)
Settings: Drosophila S3 cells, BODIPY lipid droplet/cell ratio, laser cytometry, cells loaded with oleic acid
Outline: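 Cells seeded at 5,000 per well were treated with compounds over a concentration series and loaded with oleic acid (400 uM, as added). Lipid droplet fluorescence (488 nm excitation, 500-530 nm channel) was read by laser-scanning cytometry and normalized to 20 uM Triacsin C.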

[1] = measured here: cell count channel max response
[2] = measured here: lipid (BODIPY) channel AC50
[3] = measured here: lipid channel max response
[4] = measured here: cell number channel AC50
Tags describe the fitted curve by direction and shape.

Row | Compound | max response [1] | AC50 [2] | max response [3] | AC50 [4]
1 | Cc1nc2cnc(N3CCOCC3)nc2n(CCc2ccccc2)c1=O | 4.16% | 1120 nM [rising, full curve, poor fit] | -0.317% | –
2 | COC(=O)CC1[C@@]2(C)C[C@]34OC5(C)OC6(C7CC(=O)OC(c8ccoc8)[C@]7(C)CCC6(O5)[C@]13C)C(OC(C)=O)[C@]4(OC(C)=O)C2OC(C)=O (stereo partly specified) | 22.3% | 15800 nM [rising, single point] | 36.1% | –
3 | COc1ccc(-c2nc3cnc(N4CCN(C)CC4)nc3n(CCC#N)c2=O)cc1 | 26.1% | 2510 nM [rising, full curve, poor fit] | 35.2% | –
4 | O=C(c1cnccn1)N1CCC2(CC1)CN(c1cccc(-c3ccccc3)c1)C2 | 4.79% | 17.8 nM [rising, full curve, poor fit] | 11.5% | –
5 | O=C(Nc1cccc(F)c1)N1CCCC2(CCN(C(=O)c3cnccn3)CC2)C1 | 10.5% | – | 20.5% | 7080 nM [rising, single point]
6 | CCNc1ncc2nc(-c3ccc(F)cc3)c(=O)n(CCc3ccccc3)c2n1 | 33% | – | 25.2% | 355 nM [rising, full curve]
7 | COC(=O)CC1C(C)(C)C(=O)C2CC3C4=CC(=O)OC(c5ccoc5)[C@]4(C)CCC3[C@@]1(C)C2=O (stereo partly specified) | 18.8% | 25100 nM [rising, single point] | 33.8% | –
8 | COc1ccccc1-c1nc(NC2CC2)c2ccccc2n1 | 12.6% | 112 nM [rising, full curve] | 17.7% | –
9 | CC(C)[C@@H]1C(=O)N(S(C)(=O)=O)[C@H]2CCN(C(=O)/C=C\CN3CCCCC3)[C@@H]12 | -16.5% | 10000 nM [falling, partial curve, poor fit] | -19.3% | –
10 | COc1ncc2nc(-c3ccc(F)cc3)c(=O)n(CCc3ccccc3)c2n1 | 20.1% | 50.1 nM [rising, full curve] | 32.6% | –
11 | C=C1CCC2C(CC2(C)C)C(=O)CCC1O (stereo unspecified) | 27.1% | 14100 nM [rising, partial curve, poor fit] | 31% | –
12 | O=[N+]([O-])c1ccc(CSc2ncnc3c2ncn3[C@@H]2O[C@H](CO)[C@H](O)[C@H]2O)cc1 | 44.1% | 3160 nM [falling, full curve, poor fit] | 44.7% | –
13 | CN(C)CCOC(c1ccccc1)c1ccccc1 (tested in a mixture with another compound) | 24.7% | 6310 nM [rising, partial curve] | 31.4% | –
14 | Nc1nc(NCCc2ccc(O)cc2)nc2nc(-c3ccco3)nn12 | 51.4% | – | 58.9% | 4470 nM [rising, full curve, poor fit]
15 | CN1CCN(CCC=C2c3ccccc3Sc3ccc(S(=O)(=O)N(C)C)cc32)CC1 | 14.8% | 2000 nM [rising, full curve, poor fit] | 32.3% | –
16 | COc1ccc(Oc2ncc3nc(C)c(=O)n(CCc4ccccc4)c3n2)cc1 | 15.2% | 8.91 nM [rising, full curve, poor fit] | 20.6% | –

Row | Compound | max response [1] | AC50 [2] | max response [3] | AC50 [4]
17 | O=C(O)c1cc2cc(Cc3cccnc3)ccc2o1 | 61.6% | – | 64.4% | 7080 nM [falling, partial curve, poor fit]
18 | CNc1ncnc2ccc(-c3ccc4c(c3)OCO4)cc12 | 18.3% | 1260 nM [rising, full curve, poor fit] | 25% | –
19 | O=C(/C=C/c1ccc2c(c1)OCO2)c1cccs1 | 73.5% | – | 74% | 1580 nM [rising, full curve]
20 | CC(C)NC(=O)N1CC[C@@]2(CCCN(C(=O)c3ccco3)C2)C1 | -27.9% | 2820 nM [falling, full curve, poor fit] | -27.3% | –
21 | N#Cc1cccc(-c2cc(-n3ccnc3)ncn2)c1 | 20.9% | 1580 nM [rising, full curve, poor fit] | 33.9% | –
22 | N#CCCn1c(=O)c(-c2cc(F)cc(F)c2)nc2cnc(N3CCOCC3)nc21 | 17.4% | 2820 nM [rising, single point] | 16.7% | –
23 | COc1ccc2cc(C(C)C(=O)O)ccc2c1 (stereo unspecified) | 37.8% | 39800 nM [rising, single point] | 67% | –
24 | Cc1cnc(CNc2ncnc3ccc(-c4ccccc4C#N)cc23)cn1 | 23% | 39800 nM [rising, single point] | 32.5% | –
25 | COc1cccc(-c2cncnc2NCc2cccc(C)c2)c1 | 18.6% | 3550 nM [rising, full curve, poor fit] | 27.3% | –
26 | N#CCCn1c(=O)c(-c2cccs2)nc2cnc(Oc3cccc(Cl)c3)nc21 | -7.04% | – | -11.1% | 631 nM [rising, full curve, poor fit]
27 | N#CCCn1c(=O)c(-c2ccc(Cl)cc2)nc2cnc(N3CCOCC3)nc21 | 25.9% | 447 nM [rising, partial curve] | 34.5% | –
28 | OC(CCN1CCCC1)(c1ccccc1)C1CCCCC1 (stereo unspecified) | 30.2% | 35500 nM [rising, single point] | 52.5% | –
29 | N[C@@H](CO)C(=O)O | 26.3% | 39800 nM [rising, single point] | 33.3% | –
30 | Cc1cccc(CNc2nc(-c3cccnc3)nc3ccccc23)c1 | 5.2% | 15.8 nM [rising, full curve] | 21.4% | –
31 | COc1ccc2[nH]cc(CCNc3nc(-c4ccccc4CN(C)C)nc4ccccc34)c2c1 | -29.5% | 39800 nM [falling, single point] | -31.7% | –
32 | COc1ccc(NC(=O)N2CC3(CCN(C(=O)c4ccncc4)CC3)C2)cc1 | 18.2% | 2510 nM [rising, full curve, poor fit] | 27.3% | –
